# In ChEMBL document CHEMBL4888484, “Replenishing the malaria drug discovery pipeline: Screening and hit evaluation of the MMV Hit Generation Library 1 (HGL1) against asexual blood stage Plasmodium falciparum ,using a nano luciferase reporter read-out” (2022):
# Hit rate of the full screen: of about 150,000 compounds, about 540 (0.36%) showed an effect of 50% or more. The list shows a part of the results.
# Test system: Plasmodium falciparum
# Assay: Primary screen in NF54 nanoGlo assay, in single point, at 2uM, 72h; a lower Z score goes with more inhibition
# Assay type: functional, Erythrocyte
# Details: timepoint 72 hour
Structure (SMILES),% Inhibition [%],Z score
CC1CCN(C(=O)Cn2c(=O)n(-c3ccc(F)c(Cl)c3)c(=O)c3sccc32)CC1,-9,1.01
CCn1ncnc1-c1nccn1Cc1ccc(C(F)(F)F)cc1,-9,1.25
O=C(NCCNC(=O)c1ccco1)c1ccncc1,-38,4.47
CN(C)C(=O)c1ccc(Cl)cc1NCC[C@H]1CCCO1,-5,0.88
OCc1ccc(F)c(CN2CC[C@H](Nc3ncccn3)C2)c1,-15,2.96
Cc1sc(S(=O)(=O)N2CCCC2)cc1NC(=O)c1ccc(N(C)C)cc1,3,-0.29
CCCC(N)C(=O)NC1CCC(C)(C)CC1C (stereo not given),-8,1.18
COc1ccc(C(=O)N[C@@H]2CCC[C@@H]2C(=O)N2CCN(c3cc(C)ccc3C)CC2)cc1,-7,0.97
O=C(O)[C@@H]1CCCCN1C(=O)c1cccc2[nH]ccc12,-12,1.37
COc1ccc(N2CCN(C(=O)[C@H]3CCCN(c4ncnc5onc(C)c45)C3)CC2)cc1,-10,1.32
O=C(NCCC[C@H]1C=NNC1=O)c1c(O)cccc1OC(F)(F)F,-5,0.53
O=S(=O)(c1cccnc1)N(CCOc1ccccc1)C[C@H]1CCCO1,-5,0.54
Cc1c(CCNC(=O)c2ccc(CN(C)C)o2)c2cccc3c2n1CCC3,9,-1.21
COC(=O)c1ccc(NC(=O)c2c3c(nn2-c2ccccc2)CCCC3)cc1,-12,1.59
CCC(C)C(=O)Nc1c(C(=O)OC)n(CC2CCCO2)c2ncc(NC(C)C(C)(C)O)cc12 (stereo not given),-3,0.31
O=C(CN[C@@H](C1CCOCC1)C(F)(F)F)N1CCOCC1,-6,0.54
COC(=O)CCc1nnc(NCc2ccc3c(c2)OCCO3)s1,-7,0.84
Cc1n[nH]c2nc3c(c(-c4ccc(Cl)cc4)c12)c(=O)n(C)c(=O)n3C,4,-0.57
Cc1nn(-c2nc(CC(=O)Nc3ccccc3)cs2)c(C)c1Cl,-9,1.71
O=C(CNc1cccnc1-c1ccco1)Nc1ccc(F)cc1,-35,4.95
Cc1[nH]c2c(-c3nc(-c4ncccn4)no3)cccc2c1C,-3,0.58
CC(C)CN(CC(N)=O)Cc1nccn1C,-1,0.23

Structure (SMILES),% Inhibition [%],Z score
O=C1N[C@@H](c2csc(COc3ccccc3)n2)Nc2ccccc21,-4,0.64
CCCc1ccc(OCCNC(=O)c2nn(C)cc2Cl)cc1,-18,2.3
CC1CN(CC(CNC(=O)OC(C)(C)C)Cc2ccncc2)CCO1 (stereo not given),16,-2.12
Clc1ccc2c(c1)sc[n+]2Cc1ccccc1,-10,1.97
C=CCOc1ccc(-c2nc(=O)c(CCC(=O)N3CCCC3)n[nH]2)cc1OC,20,-2.45
NC(=O)CS(=O)(=O)c1cc(F)ccc1F,4,-0.65
CCOc1ccc(S(=O)(=O)N2CCC[C@@H]2CS(=O)(=O)c2ccccc2)cc1F,-1,0.14
OCc1ccc(-c2cnn([C@@H]3CCCCO3)c2)cc1,-12,1.08
CC(C)(C)c1cc(NC(=O)COc2nnc(-c3ccccc3)o2)on1,-9,1.04
Cc1cccc(-n2cc(-c3ccccc3)nc2NC(=O)CN(C(=O)CC(C)C)C2CC2)c1,7,-0.92
O=C1[C@@H]2C(c3cccnc3)=NO[C@@H]2C(=O)N1c1cc(Cl)cc(Cl)c1,-1,0.12
Cc1c(C(c2c(C)n(C)n(-c3ccccc3)c2=O)c2c[nH]c3ccccc23)c(=O)n(-c2ccccc2)n1C,-6,0.93
C[C@@H](c1ccc2c(c1)OCCO2)N(C)C(=O)CN1C(=O)OC(C)(C)C1=O,-9,1.8
Cc1nc(CC[C@H]2CCN(C(=O)c3cccnc3)C2)no1,-3,0.45
COc1ccccc1NC(=O)[C@@H]1CCN(S(C)(=O)=O)c2ccccc2O1,-7,1.08
C[C@H](NC(=O)Nc1ccncc1F)c1ccc(OC(F)F)cc1,-1,0.09
CCOCCCNC/C=C/c1ccccc1,36,-4.62
COC(=O)c1cc(S(=O)(=O)Nc2ncncc2C(C)C)ccc1C,-8,0.91
CCc1ccc(CNC(=O)C2CCN(c3cc(=O)n(C)c(=O)n3C)CC2)cc1,-4,0.65
Cc1nc([C@@H]2CCCCCN2S(=O)(=O)c2cnn(C)c2)no1,-5,0.66
CC(C)CN1CCN([C@H]2CCOC3(CCN(C(=O)c4cccc5[nH]ccc45)CC3)C2)CC1,-22,2.4
Cc1noc(C)c1S(=O)(=O)N1C[C@H](C)OCC1(C)C,-2,0.22

Structure (SMILES),% Inhibition [%],Z score
CN(C)CCCn1ccnc1C1CCN(c2ccc3c(n2)CCCC3)CC1,12,-2.29
O=C(CCc1nc(N2CCCCC2)c2c(-c3ccc(F)cc3)noc2n1)N[C@H]1CCS(=O)(=O)C1,-1,0.21
CCNC(=O)[C@H]1CCN(C(=O)c2ccc3nc(-c4ccccc4)cn3c2)C1,-18,1.93
COc1ccc(CNCCc2nnc3ccccn23)cc1,9,-1.39
COc1ccc(S(=O)(=O)N2CCOCC2)cc1NC(=O)c1cc(-c2ccc(C)o2)nc2ccccc12,-16,2.59
CNC(=O)COc1cccc2c1CCC2=O,24,-3.31
CN(C)C(=O)N1CCN(CCOCc2ccccc2)C[C@H](O)C1,-13,1.27
C[C@H](NC(=O)N1CC2(CCCO2)C1)c1nccn1C,3,-0.28
COc1ccccc1-c1ccnc(-n2ncc(C(=O)NCCN(C)C)c2-c2ccco2)n1,-3,0.59
CC(=O)NCCNC(=O)c1cc(NCc2cccc3c2OCO3)cc(S(=O)(=O)N(C)C)c1,-13,1.53
CCCn1ccnc1CN(C)Cc1cccc(-c2nnn[nH]2)c1,-22,2.32
CO[C@@H](CNS(=O)(=O)c1cccnc1)C(C)(C)C,-8,0.83
COc1cccnc1NC(=O)Cc1csc(-c2ccc(C)o2)n1,9,-1.11
O=C1CN(C(=O)CCC(=O)Nc2ccc3c(c2)CCC3)CCN1,-4,0.79
Cc1nc(CNC(=O)Nc2cccc(F)c2)n[nH]1,-5,0.76
CS(=O)(=O)N1CCN(CCC(=O)NC2CCCCC2)CC1,-4,0.47
CC(C)c1nc([C@H]2CCCN(S(=O)(=O)c3cnc4n3CCC4)C2)no1,11,-1.27
COc1cccc(C2=NN(C(=O)CN(C)C(=O)C3CCCC3)[C@H](c3ccccc3)C2)c1,-9,1.41
Cc1cnc(CN2CCC(Oc3ncc(C)cn3)CC2)nc1,-16,2.23
O=C(c1ccc2c(c1)C(=O)N(Cc1ccccc1)C2=O)N1CCCCC1,-7,0.71
CN(C)C(=O)Cc1ccc(NS(=O)(=O)C2CC2)cc1,-6,0.94
CN(C)c1cccc(C(=O)N2CCC(c3nc4ccccc4o3)CC2)c1,-1,0.18

Structure (SMILES),% Inhibition [%],Z score
Cn1cc(S(=O)(=O)N(Cc2ccccn2)C2CC2)cn1,-3,0.53
CC(O)(CNS(=O)(=O)CC1CCCC(F)(F)C1)c1ccccc1 (stereo not given),-7,0.96
O=C1CC2(CCOCC2)N(Cc2cnc(-c3ccccc3)o2)CCN1,-6,0.8
OC(COC1CCOCC1)CN1CCCC1c1ccc(Br)cn1 (stereo not given),4,-0.4
CCOC1CC2(CCN(Cc3ccc(OC(F)F)c(Cl)c3)C2)C1 (stereo not given),1,-0.13
Cc1nc(N2CCOCC2)sc1CN[C@@H](C)Cn1cccn1,-8,0.81
Cc1ccc(-c2cc(F)c(F)c(F)c2)nn1,-6,0.87
Cc1cc(C(=O)NCCc2ccco2)nc(C)n1,-8,1.45
Cc1ccc(NC(=O)c2[nH]ccc2C)cc1S(=O)(=O)NC(C)(C)C,-3,0.34
CCn1nc(CO)c2c1CCN(Cc1ccc(OC)cc1F)C2,-1,0.13
CN(C)c1ccncc1C(=O)N1CCN(Cc2ccncc2)CC1,-1,0.07
COc1cc(OC)c(NC(=O)N(C)CCc2c(C)nn(C)c2C)cc1Cl,-9,0.89
CCCC1(CN=C(N)N(C)C2CC2)CCC1,5,-0.45
O=C(CCc1ccccc1)N1CCC2(CC[C@@H]2N2CCOCC2)CC1,-3,0.51
C[C@H]1COc2c(N3CCN(C)CC3)c(F)cc3c(=O)c(C(=O)NCc4cccc(Cl)c4)cn1c23,-12,1.02
CCCC[C@H](NC(=O)c1cc(C)c(CC)n(C)c1=O)C(N)=O,-9,1.44
CCCNC(=O)CCNC(=O)N[C@H]1CCCC12CCOCC2,-13,2.37
Cc1cccc(-c2nc3nc(C)cc(N4CCCCC4)n3n2)c1,-23,4.02
NC(=O)CN1CCC(Nc2nc(-c3ccc(F)cc3)cs2)CC1,7,-0.79
